This sample is rich in variants without activity.
B1: TPR 5TU (parent)
chain: GGAUCUUCUCGAUCUAACAAAAAAGACAAAUCUGCCACAAAGCUUGAGAGCAUCUUCGGAUGCAGAGGCGGCAGCCUUCGGUGGCGCGAUAGCGCCAACGUUCUCAACUAUGACACGCAAAACGCGUGCUCCGUUGAAUGGAGUUUAUCAUG

Variants of: B1
Experiment: polymerase ribozyme fitness, log enrichment relative to wild type (log ratio); higher = more active; in vitro selection for triplet polymerase activity
Outline: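 PCR was used to build mutant libraries for each subunit of a heterodimeric triplet polymerase ribozyme, which were then transcribed. A single in vitro selection round, in triplicate, used a frozen incubation at −7 °C and recovered extended constructs by gel excision, streptavidin beads and RT-PCR. Fitness is the logarithm of genotype enrichment relative to wild-type enrichment, averaged over replicates with inverse-variance weights. The logarithm is base 2, and after Illumina sequencing only genotypes with ≥10 input reads and ≥1 read per output were kept.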
With A20U U101A the “polymerase ribozyme fitness (log ratio)” value was -2.4. In the case of A21C A52U G74A G94C A121U, the “polymerase ribozyme fitness (log ratio)” value is reported as no more than -4.2. With A20U U45A G48U A64G A137U the “polymerase ribozyme fitness (log ratio)” value was no more than -4.2. For A21G A73G G86U G100C G136U C149G, the “polymerase ribozyme fitness (log ratio)” value was no more than -4.2. With A21C A73U A107C A121U C149U the “polymerase ribozyme fitness (log ratio)” value was no more than -4.2. In the case of A21C G46A G48C U56A G70C G83U G124A, the “polymerase ribozyme fitness (log ratio)” value is reported as no more than -4.2. In the case of A21U A47G C54U G81C G92A C95A C99U, the “polymerase ribozyme fitness (log ratio)” value is reported as -3.94. With A21U A52G C75A A91G C93U C108G the “polymerase ribozyme fitness (log ratio)” value was no more than -4.2. In the case of A21G C51U G136A A137C G141C, the “polymerase ribozyme fitness (log ratio)” value is reported as no more than -4.2. In the case of A21G G50C A120G G141A G143A, the “polymerase ribozyme fitness (log ratio)” value is reported as no more than -4.2. For A21U A26U A30C U31G C36U A52U U53A A97G, the “polymerase ribozyme fitness (log ratio)” value was no more than -4.2. In the case of A21C G59A G74A C93G A98G, the “polymerase ribozyme fitness (log ratio)” value is reported as no more than -4.2. With A21G A22G A37C G62C G94C C103A A106C U130A the “polymerase ribozyme fitness (log ratio)” value was no more than -4.2. For A21G U33A G88U U90G C114A U144C, the “polymerase ribozyme fitness (log ratio)” value was no more than -4.2. In the case of A21G G50U G92U A147C, the “polymerase ribozyme fitness (log ratio)” value is reported as -0.875. In the case of A20U U55A C85A, the “polymerase ribozyme fitness (log ratio)” value is reported as -3.29. For A21U A37C A49C U78C C103A A113G, the “polymerase ribozyme fitness (log ratio)” value was no more than -4.2. In the case of A21C U33A G50A G62A U90C C95A, the “polymerase ribozyme fitness (log ratio)” value is reported as no more than -4.2. In the case of A21G C38U U61A A89U U127A G128A, the “polymerase ribozyme fitness (log ratio)” value is reported as no more than -4.2. In the case of A21G G70A, the “polymerase ribozyme fitness (log ratio)” value is reported as -3.35. In the case of A21C G25U U45A C93A G141A, the “polymerase ribozyme fitness (log ratio)” value is reported as no more than -4.2. In the case of A21C A22U C54U A73G A89G, the “polymerase ribozyme fitness (log ratio)” value is reported as -1.48. With A21U A24U G94U A97G A150C the “polymerase ribozyme fitness (log ratio)” value was no more than -4.2. For A21G A37G C69A G80C C96A, the “polymerase ribozyme fitness (log ratio)” value was no more than -4.2. In the case of A21G G68U G141A C149G, the “polymerase ribozyme fitness (log ratio)” value is reported as no more than -4.2. With A21U A29U U44A A52C C54G G68C G92C A106U the “polymerase ribozyme fitness (log ratio)” value was no more than -4.2. In the case of A21C U56A, the “polymerase ribozyme fitness (log ratio)” value is reported as -0.39. With A21U A64U G81A G84C A115U C116G the “polymerase ribozyme fitness (log ratio)” value was no more than -4.2. With A21C U45C G58A A97U G100A G124U U134A the “polymerase ribozyme fitness (log ratio)” value was no more than -4.2. For A21G A26C A66U C87G A115C U134C U146A, the “polymerase ribozyme fitness (log ratio)” value was no more than -4.2. For A21U A23U A24C C54U G81A C85U A147C, the “polymerase ribozyme fitness (log ratio)” value was no more than -4.2. In the case of A21G G48A C54U G92A, the “polymerase ribozyme fitness (log ratio)” value is reported as no more than -4.2. For A21G C38U A47C U90A C96A A137U, the “polymerase ribozyme fitness (log ratio)” value was no more than -4.2. For A21U A37C A49G A52U A91C, the “polymerase ribozyme fitness (log ratio)” value was no more than -4.2. For A21G C75U A98G C99G C114U, the “polymerase ribozyme fitness (log ratio)” value was no more than -4.2. With A21C A29U A39U U55A G68C C95A C118G C125G the “polymerase ribozyme fitness (log ratio)” value was no more than -4.2. With A21G G88A U90C U127C U135G C149U the “polymerase ribozyme fitness (log ratio)” value was no more than -4.2. For A21C A49C C103G G117A G140C U151G, the “polymerase ribozyme fitness (log ratio)” value was no more than -4.2. For A21C C43U C105U C116A A137U, the “polymerase ribozyme fitness (log ratio)” value was no more than -4.2. For A21G U44A G83A U102G U109G C118G G136A, the “polymerase ribozyme fitness (log ratio)” value was no more than -4.2. In the case of A21U A26G A52G G58A U78A G100A U134C, the “polymerase ribozyme fitness (log ratio)” value is reported as no more than -4.2. For A21C C51G C79A C116U, the “polymerase ribozyme fitness (log ratio)” value was no more than -4.2. In the case of A21C U31A U45G A52G C108U, the “polymerase ribozyme fitness (log ratio)” value is reported as no more than -4.2. For A21C G59C C79A G152A, the “polymerase ribozyme fitness (log ratio)” value was no more than -4.2. For A21C C43U A142C U145A, the “polymerase ribozyme fitness (log ratio)” value was no more than -4.2. In the case of A20U G81A G94C C103G G124A A138U A147G, the “polymerase ribozyme fitness (log ratio)” value is reported as no more than -4.2. In the case of A21G G46A G50A U53A U56A G94C, the “polymerase ribozyme fitness (log ratio)” value is reported as no more than -4.2. With A21G C35A C93A G128U A137C the “polymerase ribozyme fitness (log ratio)” value was no more than -4.2. With A21G G83A C108U G140C the “polymerase ribozyme fitness (log ratio)” value was no more than -4.2. With A21C U31C C32A A52C A97C the “polymerase ribozyme fitness (log ratio)” value was no more than -4.2. In the case of A21G C103A U104G A120G, the “polymerase ribozyme fitness (log ratio)” value is reported as no more than -4.2. For A21G A39U C75U U82A C87A A98G C118U C125U, the “polymerase ribozyme fitness (log ratio)” value was no more than -4.2. With A21C U56A C76G G133U the “polymerase ribozyme fitness (log ratio)” value was no more than -4.2. In the case of A21U A26U G83A A106G, the “polymerase ribozyme fitness (log ratio)” value is reported as -3.03. With A21G C32G A39U C54U G59A U82G A91G U139G the “polymerase ribozyme fitness (log ratio)” value was no more than -4.2. With A21C A60G A73U C93G A137U the “polymerase ribozyme fitness (log ratio)” value was no more than -4.2. For A21C A23U U31A U44A G50A G141U, the “polymerase ribozyme fitness (log ratio)” value was no more than -4.2. With A21C A29G A30U G50A C57U C96G the “polymerase ribozyme fitness (log ratio)” value was no more than -4.2. In the case of A21G G50U C76A A89U C93G C116A C123G C131A G141U G143U U146A, the “polymerase ribozyme fitness (log ratio)” value is reported as no more than -4.2. For A21G C85U, the “polymerase ribozyme fitness (log ratio)” value was -0.132. For A21U A113C U127G C132U, the “polymerase ribozyme fitness (log ratio)” value was no more than -4.2. In the case of A21C G65A C93G C96A A120U U148A, the “polymerase ribozyme fitness (log ratio)” value is reported as no more than -4.2. With A21U A29C A30C U45A C85U G133U the “polymerase ribozyme fitness (log ratio)” value was no more than -4.2. For A21G A29U G50C G62U C69U C93A, the “polymerase ribozyme fitness (log ratio)” value was no more than -4.2. With A20U U78C A91G U148A U151G the “polymerase ribozyme fitness (log ratio)” value was no more than -4.2. With A21U A29U A66U C76A C93G the “polymerase ribozyme fitness (log ratio)” value was no more than -4.2. In the case of A21G C35U C51U C57G C87U A89C C108G U134C, the “polymerase ribozyme fitness (log ratio)” value is reported as no more than -4.2. With A20U G65C C85U A106U the “polymerase ribozyme fitness (log ratio)” value was no more than -4.2. With A21C A41C C51U G65A G71U G83A the “polymerase ribozyme fitness (log ratio)” value was no more than -4.2. For A21C A24G A28G A29U A40C A52C C96A C116U, the “polymerase ribozyme fitness (log ratio)” value was no more than -4.2. With A21G A52C C75G C85U A89G C96G A150G the “polymerase ribozyme fitness (log ratio)” value was -3.89. With A21G G81A U82C A107G the “polymerase ribozyme fitness (log ratio)” value was no more than -4.2. For A21C A24U G46U C57U C93U, the “polymerase ribozyme fitness (log ratio)” value was -1.65. In the case of A21C U90A C103A G133C A142G, the “polymerase ribozyme fitness (log ratio)” value is reported as no more than -4.2. With A21G U33C A47G G58C C95A G128A A150U the “polymerase ribozyme fitness (log ratio)” value was no more than -4.2. For A21U A30U C38G C85G G112A G124A, the “polymerase ribozyme fitness (log ratio)” value was no more than -4.2. In the case of A21C A52C C85U G117C, the “polymerase ribozyme fitness (log ratio)” value is reported as -0.924. In the case of A21G C85U A138U U144C, the “polymerase ribozyme fitness (log ratio)” value is reported as no more than -4.2. In the case of A20U U33C G71C G92U C96G A119U C125A, the “polymerase ribozyme fitness (log ratio)” value is reported as no more than -4.2. With A21G C75G A89U C95U G128U the “polymerase ribozyme fitness (log ratio)” value was no more than -4.2. With A20U G80U C85G G140U the “polymerase ribozyme fitness (log ratio)” value was no more than -4.2. In the case of A21G A40U, the “polymerase ribozyme fitness (log ratio)” value is reported as 0.957. With A21U A39C U90C C95U A97U the “polymerase ribozyme fitness (log ratio)” value was no more than -4.2.

— the RNAGym collection of RNA variant scans (doi:10.1073/pnas.2313332121)
